Laboratory results reported in the supplement of paper PMC8728848.
This is one part of the list.

What was measured:
Assay in all cases: glycan array binding signal (z-score within array); higher = stronger binding
Conditions in all cases: glycan notation: IUPAC condensed, linker removed
[1] = biological target: Fuc(a1-3)[Gal(b1-4)]GlcNAc(b1-3)Gal(b1-3)[Fuc(a1-4)]GlcNAc
Outline: (§1)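 From the Consortium for Functional Glycomics database, 3228 arrays were curated, keeping only those whose protein sequence was available. Binding is given as a within-array Z-score averaged across arrays sharing a protein sequence and across linkers. Negative Z-scores can be read as non-binding.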

[2] = biological target: Fuc(a1-3)[Gal(b1-4)]GlcNAc(b1-3)Gal(b1-4)[Fuc(a1-3)]GlcNAc
Outline: as §1

[3] = biological target: Fuc(a1-3)[Gal(b1-4)]GlcNAc(b1-3)Gal(b1-4)[Fuc(a1-3)]GlcNAc(b1-3)Gal(b1-4)[Fuc(a1-3)]GlcNAc
Outline: as §1

[4] = biological target: Fuc(a1-3)[Gal(b1-4)]GlcNAc(b1-3)GalNAc
Outline: as §1

[5] = biological target: Fuc(a1-3)[Gal(b1-4)]GlcNAc(b1-6)GalNAc
Outline: as §1

[6] = biological target: Fuc(a1-3)[Gal(b1-4)]GlcNAc(b1-6)[Gal(b1-3)GlcNAc(b1-3)]Gal(b1-4)Glc
Outline: as §1

[7] = biological target: Fuc(a1-3)[Gal(b1-4)]GlcNAc6S
Outline: as §1

[8] = biological target: Fuc(a1-3)[Gal3S(b1-4)]Glc
Outline: as §1

[9] = biological target: Fuc(a1-3)[Gal3S(b1-4)]GlcNAc
Outline: as §1

[10] = biological target: Fuc(a1-3)[Gal3S(b1-4)]GlcNAc6S
Outline: as §1

[11] = biological target: Fuc(a1-3)[GalNAc(b1-4)]GlcNAc
Outline: as §1

[12] = biological target: Fuc(a1-3)[GalNAc(b1-4)]GlcNAc6S
Outline: as §1

[13] = biological target: Fuc(a1-4)GlcNAc
Outline: as §1

[14] = biological target: Fuc(b1-3)GlcNAc
Outline: as §1

[15] = biological target: Gal(a1-2)Gal
Outline: as §1

[16] = biological target: Gal(a1-3)Gal
Outline: as §1

[17] = biological target: Gal(a1-3)Gal(b1-3)GlcNAc
Outline: as §1

[18] = biological target: Gal(a1-3)Gal(b1-3)GlcNAc(b1-2)Man
Outline: as §1

[19] = biological target: Gal(a1-3)Gal(b1-3)GlcNAc(b1-2)Man(a1-3)[Gal(a1-3)Gal(b1-3)GlcNAc(b1-2)Man(a1-6)]Man(b1-4)GlcNAc(b1-4)GlcNAc
Outline: as §1

[20] = biological target: Gal(a1-3)Gal(b1-3)GlcNAc(b1-3)GalNAc
Outline: as §1

[21] = biological target: Gal(a1-3)Gal(b1-3)GlcNAc(b1-6)GalNAc
Outline: as §1

[22] = biological target: Gal(a1-3)Gal(b1-3)[Fuc(a1-4)]GlcNAc(b1-2)Man(a1-3)[Gal(a1-3)Gal(b1-3)[Fuc(a1-4)]GlcNAc(b1-2)Man(a1-6)]Man(b1-4)GlcNAc(b1-4)GlcNAc
Outline: as §1

[23] = biological target: Gal(a1-3)Gal(b1-4)Glc
Outline: as §1

[24] = biological target: Gal(a1-3)Gal(b1-4)GlcNAc
Outline: as §1

[25] = biological target: Gal(a1-3)Gal(b1-4)GlcNAc(b1-2)Man
Outline: as §1

[26] = biological target: Gal(a1-3)Gal(b1-4)GlcNAc(b1-2)Man(a1-3)[Gal(a1-3)Gal(b1-4)GlcNAc(b1-2)Man(a1-6)]Man(b1-4)GlcNAc(b1-4)GlcNAc
Outline: as §1

[27] = biological target: Gal(a1-3)Gal(b1-4)GlcNAc(b1-3)GalNAc
Outline: as §1

[28] = biological target: Gal(a1-3)Gal(b1-4)GlcNAc(b1-6)GalNAc
Outline: as §1

[29] = biological target: Gal(a1-3)Gal(b1-4)[Fuc(a1-3)]GlcNAc
Outline: as §1

[30] = biological target: Gal(a1-3)Gal(b1-4)[Fuc(a1-3)]GlcNAc(b1-2)Man(a1-3)[Gal(a1-3)Gal(b1-4)[Fuc(a1-3)]GlcNAc(b1-2)Man(a1-6)]Man(b1-4)GlcNAc(b1-4)GlcNAc
Outline: as §1

[31] = biological target: Gal(a1-3)GalNAc
Outline: as §1

[32] = biological target: Gal(a1-3)[Gal(a1-4)]Gal(b1-4)GlcNAc
Outline: as §1

[33] = biological target: Gal(a1-4)Gal(b1-3)GlcNAc(b1-2)Man(a1-3)[Gal(a1-4)Gal(b1-3)GlcNAc(b1-2)Man(a1-6)]Man(b1-4)GlcNAc(b1-4)GlcNAc
Outline: as §1

[34] = biological target: Gal(a1-4)Gal(b1-4)Glc
Outline: as §1

[35] = biological target: Gal(a1-4)Gal(b1-4)GlcNAc
Outline: as §1

[36] = biological target: Gal(a1-4)Gal(b1-4)GlcNAc(b1-2)Man(a1-3)[Gal(a1-4)Gal(b1-4)GlcNAc(b1-2)Man(a1-6)]Man(b1-4)GlcNAc(b1-4)GlcNAc
Outline: as §1

[37] = biological target: Gal(a1-4)Gal(b1-4)GlcNAc(b1-3)Gal(b1-4)Glc
Outline: as §1

[38] = biological target: Gal(a1-4)GlcNAc
Outline: as §1

B1: DC-ASGPR L+GEE (Homo sapiens) (protein)
chain: MTRTYENFQYLENKVKVQGFKNGPLPLQSLLQRLRSGPCHLLLSLGLGLLLLVIICVVGFQNSKFQRDLVTLRTDFSNFTSNTVAEIQALTSQGSSLEETIASLKAEVEGFKQERQAGVSELQEHTTQKAHLGHCPHCPSVCVPVHSEMLLRVQQLVQDLKKLTCQVATLNNNGEEASTEGTCCPVNWVEHQDSCYWFSHSGMSWAEAEKYCQLKNAHLVVINSREEQNFVQKYLGSAYTWMGLSDPEGAWKWVDGTDYATGFQNWKPGQPDDWQGHGLGGGEDCAHFHPDGRWNDDVCQRPYHWVCEAGLGQTSQESH
[1]
  glycan array binding signal (z-score): -0.793
[2]
  glycan array binding signal (z-score): 0.074
[3]
  glycan array binding signal (z-score): -0.523
[4]
  glycan array binding signal (z-score): -0.225
[5]
  glycan array binding signal (z-score): -0.101
[6]
  glycan array binding signal (z-score): -0.363
[7]
  glycan array binding signal (z-score): 0.007
[8]
  glycan array binding signal (z-score): -0.257
[9]
  glycan array binding signal (z-score): -0.343
[10]
  glycan array binding signal (z-score): 0.21
[11]
  glycan array binding signal (z-score): 1.22
[12]
  glycan array binding signal (z-score): 0.838
[13]
  glycan array binding signal (z-score): -0.09
[14]
  glycan array binding signal (z-score): -0.237
[15]
  glycan array binding signal (z-score): -0.199
[16]
  glycan array binding signal (z-score): 0.243
[17]
  glycan array binding signal (z-score): -0.123
[18]
  glycan array binding signal (z-score): -0.414
[19]
  glycan array binding signal (z-score): -0.423
[20]
  glycan array binding signal (z-score): -0.315
[21]
  glycan array binding signal (z-score): 2.34
[22]
  glycan array binding signal (z-score): -0.455
[23]
  glycan array binding signal (z-score): -0.207
[24]
  glycan array binding signal (z-score): -0.402
[25]
  glycan array binding signal (z-score): -0.585
[26]
  glycan array binding signal (z-score): -0.425
[27]
  glycan array binding signal (z-score): -0.237
[28]
  glycan array binding signal (z-score): 3.21
[29]
  glycan array binding signal (z-score): -0.544
[30]
  glycan array binding signal (z-score): 0.091
[31]
  glycan array binding signal (z-score): -0.254
[32]
  glycan array binding signal (z-score): -0.371
[33]
  glycan array binding signal (z-score): -0.042
[34]
  glycan array binding signal (z-score): -0.702
[35]
  glycan array binding signal (z-score): -0.409
[36]
  glycan array binding signal (z-score): -0.427
[37]
  glycan array binding signal (z-score): -1.03
[38]
  glycan array binding signal (z-score): 0.107
